# Experimental data taken from PMC12136788.
# Numbering of substitutions follows the chain as printed. The list shows a part of the results.
# B1: chr4:107545374:107545375:+_ENSMUSG00000028613_ENSMUST00000106731|mus_hu|motif|central (ssRNA)
# RNA: GGGAGUUCUACAGUCCGACGAUCUGAUGGAUAGCCACAAAGCAUAAUCAUCUUAUUUACAAAAAACAAAUGCCCCAAAACCGGAAAAAGCCCCCCCAGCAACCAAACAUCUUCUGUAAAUAUAGUUUUUAAAUGAUGAGUAAGCAACAGAGGAUUGAGCAUCA
# B2: chr1:107181519:107181520:-_ENSMUSG00000047496_ENSMUST00000058688|mus_mus|motif|central (ssRNA)
# RNA: GGGAGUUCUACAGUCCGACGAUCUCACCACUCUGGAUCCCUCUUCUCAAGCUCACAGGGCAUCGAGCAUUCACAAAUGUGCGGAUUUCUGAAUCUGUCACGCGUCCCUUUCACCCCCUUCUGCGUGUUGACAUCAAGUGGAAACAACAGAGGAUUGAGCAUCA
# B3: chr5:110835399:110835400:-_ENSG00000164211_ENST00000296632|hu_hu|FALSE|FALSE (ssRNA)
# RNA: GGGAGUUCUACAGUCCGACGAUCUGAGAGCCUGUCUCAAAAUUUAAAAAAAAAAAAGUGAAAAUGCCCUCUCUUAGAUAGCUAUUUACUUUAGGAAUAAAACCAAACAUUGUACUAGUGAACCAAAAACAUUUCAAAUUUUUCCAACAGAGGAUUGAGCAUCA
# B4: chr6:40197388:40197389:+_ENSMUSG00000057716_ENSMUST00000061740|mus_mus|mus_mus_mus_hu_False|88_98 (ssRNA)
# RNA: GGGAGUUCUACAGUCCGACGAUCGAGACACUGGGGUGGAUGGCACCUCAGUUUGGGUGGGUGCUAGCCACUAAGACUGUUAUUUUGGGAUUCAUGGCCUUGAAUAUCAAGAGGGAAAGGAAGAGGAUGGAAAGAGUCAAGAGUCAACAGAGGAUUGAGCAUCA
# B5: chr2:63824656:63824657:+_ENSG00000014641_ENST00000394423|hu_hu|motif|central (ssRNA)
# RNA: GGGAGUUCUACAGUCCGACGAUCGGUAUUGGCUGGAUUACCCACAACAAUAACCUUAACUGACUUCUUGGCGUAUUUAUCGGAGGCUGCACCCUGGGAUUUGAAGAUUUUCACAUUUGCUUUCAGUAAAUCUUUUCUCUCCAUCAACAGAGGAUUGAGCAUCA
# B6: chr12:39756943:39756944:-_ENSG00000139116_ENST00000544797|hu_mus|hu_hu_hu_mus_False|78_78 (ssRNA)
# RNA: GGGAGUUCUACAGUCCGACGAUCGGUUUGGCUGUUACCCCCAAGGGAAUCCUGCAAUAGUCUUGUUAGCUUAGAGUCUCUGUAAGGGACAUGGGUGGCUCUCUUGCUCUUGUCCCCCAAGGCGCUGAUUACAUUCCCAAGAGCCAACAGAGGAUUGAGCAUCA
# B7: 30185271_30188328_2573_CDS_ENSMUSG00000024827_ENSMUST00000025778|mouse|control|control (ssRNA)
# RNA: GGGAGUUCUACAGUCCGACGAUCCAUCUUAAUGUAAGCCCAUGAAAUGGGCAGGAUGGAGCUGGAACCCCACGGGGCUGCACUGACAGUGCCCACGGGCCAGGUGCCUUCAGUUGGCUUUAUGGAAAUGACGGGGUGGCUGGGCAACAGAGGAUUGAGCAUCA
# B8: chr6:38652254:38652255:-_ENSG00000124767_ENST00000373365|hu_hu|hu_hu_hu_mus_False|8_108 (ssRNA)
# RNA: GGGAGUUCUACAGUCCGACGAUCCGAAAACUUCAUAGCAGGGAAGUCAAGCUUCUGCAGGAGGGUCAGUCCAAGAACCCUCGUAUAAAAAUCCAGGGACUUCUUAGGAUCCUUAAUUCUUAGCAUCGUCUGCUGCAGUAGAAACAACAGAGGAUUGAGCAUCA
# B9: chr2:9725471:9725472:-_ENSG00000134308_ENST00000238081|hu_mus|FALSE|FALSE (ssRNA)
# RNA: GGGAGUUCUACAGUCCGACGAUCUGAAAAGCAGACUGAGACAGUUUCCAAUUCCACACAAGUAAAUGUUAAGUUGUCUCUAAGCAACUGCAUGAUGAGGGUGCUGUCUUUGUAGGAGUCUUCGUUCAGUGUAUCAAGCUCUGCCAACAGAGGAUUGAGCAUCA
# B10: 31079749_31080365_821_CDS_ENSMUSG00000029168_ENSMUST00000114729|mouse|control|control (ssRNA)
# RNA: GGGAGUUCUACAGUCCGACGAUCCUCCAUUUCUGCUUUCACCUUGGGUGCCCACCAGGUGAUCCCCACAUGGAGGGCAUAGUCACAGCAGACCUUGGGGUCAGCUAGAGCCCUGCACUUCUCAUAGGCUUCCACGAGGGAGGUCAACAGAGGAUUGAGCAUCA
# B11: 32740393_32740513_11099_CDS_ENSG00000115760_ENST00000421745|human|control|control (ssRNA)
# RNA: GGGAGUUCUACAGUCCGACGAUCCUUAUUACAUUGUUGUGGGACAUGAUGGCGCCUGAGUUUGUCCUGGGAAAUAUCUAUUGACUGGGCAAUGCUUUCUGAGCUAGAAAUGUGGCUAAAGCAGAAACUAGCCAGACUCCUCACCAACAGAGGAUUGAGCAUCA
# B12: chr8:125728745:125728746:-_ENSMUSG00000000743_ENSMUST00000000759|mus_mus|FALSE|FALSE (ssRNA)
# RNA: GGGAGUUCUACAGUCCGACGAUCUCCUCACUGUGGAGGGAUGAAGAGCUUGCUGCCAGCUGCCAGAUGUGACUGACUCAGGCUCCCUCUGUUAGCCAGCCAGGCUCUCCCUUGGAGAAGGCUGAAAGCAGCAGCCUUUGUCUACAACAGAGGAUUGAGCAUCA
# B13: 112641268_112645010_655_CDS_ENSG00000150593_ENST00000280154|human|control|control (ssRNA)
# RNA: GGGAGUUCUACAGUCCGACGAUCCUGGUCAUCAUCAUAGUUAGGAUCUUUCACAUCCACCUCCUCCACAUCAUACACCUGUCCAGGUGUACCCCAGACACCUUUGCCUCCUGCACCACCUUUCUUUGGUAGUCCCCUUCCUUUCAACAGAGGAUUGAGCAUCA
# B14: chr8:117878989:117878990:-_ENSG00000164754_ENST00000297338|hu_hu|hu_hu_hu_mus_True|1_8 (ssRNA)
# RNA: GGGAGUUCUACAGUCCGACGAUCCCAGAGGCCCUCGUUUACUGAGGACAAAAUGUGCGUAGAACAUUUUUCUUAUUUGCUAUGAAAUAAGAAGAAACCUGGAUCUCGGCGGGGAGCCGGGAGGGGUUGGGUGGCCCGGGGAGGCAACAGAGGAUUGAGCAUCA
# B15: chr3:33038425:33038426:-_ENSG00000170266_ENST00000307363|hu_hu|motif|central (ssRNA)
# RNA: GGGAGUUCUACAGUCCGACGAUCAGGUGGGGCUUUGGCACUGCAGGGAUGCAGGGAAACCUCAGGUGAAAAUGCACAUCCGGAAUUCCUUUUCCAUUUCCACAUUCCAAUCAGUGAAAUGUGGCAUGACAGGGAGGAUCUGUGCAACAGAGGAUUGAGCAUCA
# B16: chr7:65705844:65705845:+_ENSG00000169902_ENST00000304842|hu_mus|hu_hu_hu_mus_False|28_108 (ssRNA)
# RNA: GGGAGUUCUACAGUCCGACGAUCAAAAGGAUCUUUAUUACAUAAAUAAGGUGCCGGCUCCCCAUGUUUAACAAUGACCUCCAGAAGGAAGGCUUGCAUGGCAGAAUCCAGCACUUCAUCUGUGACACCCGCCUCAUCCAAGCGCAACAGAGGAUUGAGCAUCA
# B17: chr2:175094126:175094127:-_ENSG00000138430_ENST00000344357|hu_mus|motif|central (ssRNA)
# RNA: GGGAGUUCUACAGUCCGACGAUCUCUGCUCUCAUUAGGAUCAAUAGUGCAGAAUGGGAAGUUUUCUGCUGAAGCCUGACGGUUGGUUAAUACAUUGAAGAAGGUAGACUUCCCAACAUUUGGCAAUCCAACGAUACCAAUUUUCAACAGAGGAUUGAGCAUCA
# B18: chrX:20248820:20248821:+_ENSMUSG00000001924_ENSMUST00000001989|mus_mus|mus_mus_mus_hu_True|78_98 (ssRNA)
# RNA: GGGAGUUCUACAGUCCGACGAUCGGCGAAGUCCGUCAUCACAAAGUCAGGUUCUGCCAGUGAUGCUACCAAGGAUUUAAAGCUAAUCUUCUUAGGUACUUUGACCUGACUGACGAUGCCUCCACGGAUGUAGUCGGAGAAGUUCAACAGAGGAUUGAGCAUCA
# B19: chr7:65705844:65705845:+_ENSG00000169902_ENST00000304842|hu_mus|hu_hu_hu_mus_False|68_88 (ssRNA)
# RNA: B16 RNA with A27C, A36G, U51G, C54U, A72G, G75A, C108U
# B20: chr1:213178640:213178641:-_ENSG00000174606_ENST00000366962|hu_mus|FALSE|FALSE (ssRNA)
# RNA: GGGAGUUCUACAGUCCGACGAUCAGCUAUGCAGAUGGAUGGAGAGGCAGCGCGUGGGAUCUUGGGCUGCAGGAGUAAAACCAAUCCAAUGUUGUCCCUGUCCAGCAGAGGAAUGUCGCGGCGGCAGAACUCCACUGGGUUCACCAACAGAGGAUUGAGCAUCA
# B21: chr1:39494564:39494565:+_ENSG00000168653_ENST00000372967|hu_hu|hu_hu_hu_mus_True|48_48 (ssRNA)
# RNA: GGGAGUUCUACAGUCCGACGAUCAUGCAUUCGCCUCAUCGUUUUGUACCGAAGCAAGCACUCUUCGAAGUCAUCGAACUCUAUCUUGCACUCUUUCUUCGCCCGGGUCCCACCGAUCCCGUGUGCACACUCUAUCCACUCUUUCAACAGAGGAUUGAGCAUCA
# B22: chr8:29959424:29959425:+_ENSG00000104660_ENST00000321250|hu_mus|FALSE|FALSE (ssRNA)
# RNA: GGGAGUUCUACAGUCCGACGAUCGAAGGGCACAUCCAAGCAUCAGGAACAUCAGCCCGAUCGCUCCUCCAAAGGACAAACUAAUUAAAGCUUUGAUGCCCGCCAUGGCGGUGACGUCGCUCCUGGCUCCACGACCCGGGCGGUCAACAGAGGAUUGAGCAUCA
# Molecular target: T1, UNK ZnF1-3 (human, UniProt Q9C0B0 31-174)
# T1 sequence: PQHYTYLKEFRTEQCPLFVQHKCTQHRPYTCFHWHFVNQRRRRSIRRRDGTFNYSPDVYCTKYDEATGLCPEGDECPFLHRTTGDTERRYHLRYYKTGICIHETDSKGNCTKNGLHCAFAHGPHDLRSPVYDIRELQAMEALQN
# Assay: nsRBNS (natural sequence RNA bind-n-seq); RBNS binding buffer (assumed for nsRBNS): 25 mM Tris pH 7.5, 150 mM KCl, 3 mM MgCl2, 0.01% Triton X-100, 500 ug/ml BSA, 20 U/ml SUPERase-In, 4 C; UNK is unkempt and MSI1 is Musashi-1; names of the RNAs are library labels; protein concentration not given here; high values mean tight binding
row,Binder,binding signal
1,B1,2.72 enrichment R
2,B2,1.45 enrichment R
3,B3,2.67 enrichment R
4,B4,1.61 enrichment R
5,B5,0.383 enrichment R
6,B6,0.786 enrichment R
7,B7,1.77 enrichment R
8,B8,0.734 enrichment R
9,B9,0.982 enrichment R
10,B10,0.489 enrichment R
11,B11,1.07 enrichment R
12,B12,0.527 enrichment R
13,B13,0.836 enrichment R
14,B14,1.3 enrichment R
15,B15,1.01 enrichment R
16,B16,0.513 enrichment R
17,B17,1.32 enrichment R
18,B18,0.745 enrichment R
19,B19,0.811 enrichment R
20,B20,1.82 enrichment R
21,B21,0.689 enrichment R
22,B22,1.33 enrichment R
